{"source": "PubChem BioAssay AID1345082", "about": "(National Center for Advancing Translational Sciences (NCATS), 2018)", "note": "Screen size: about 94,000 compounds; about 4,000 (4.3%) were called active. This list was built around the results that the source calls inconclusive (neither active nor inactive); the mix of calls is not that of the screen. Calls come from the whole dose curve; as a rule, active = well fitted inhibition curve with a large enough effect; inconclusive = small, poorly fitted or top-dose-only effect; inactive = no such curve, though single readings can be large or run the other way. Potencies of inconclusive entries are doubtful fits and often do not repeat. Potency is the fitted concentration of half-maximal effect; tags give direction and shape of the fitted curve."}
{"test": "Cytotoxic Profiling in NIH 3T3 Cell Line of Diverse Libraries Using Quantitative High-Throughput Screening; note: nearly all actives have a fitted effect of over 55% in size", "conditions": "NIH 3T3 viability, CellTiter-Glo ATP luminescence, 48-72 h; series mostly up to 96.7 µM", "method_in_brief": "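Cells were seeded at 400 per well, treated with pin-transferred compound, and kept 48 or 72 hr at 37 °C before CellTiter-Glo addition and luminescence imaging of cellular ATP.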"}
{"smiles": "COCC1N(Cc2ccc(Oc3ccccc3)cc2)C2CCC1(O)CC2", "note": "(configuration not stated)", "Potency": "inconclusive: 35.5 µM [inhibitor, partial curve]"}
{"smiles": "CC(C)(C)NC(=O)C1CCCN(C2CCN(C3Cc4ccccc4C3)CC2)C1", "note": "(configuration not stated)", "Potency": "inactive"}
{"smiles": "O=C(N[C@@H]1CN(c2ncccn2)C[C@H]1CO)c1cc2ccccc2[nH]1", "Potency": "inactive"}
{"smiles": "Cn1ncc2c(C(=O)N3CCC(N4CCCCC4)CC3)cc(-c3ccccc3C(F)(F)F)nc21", "Potency": "inconclusive: 44.7 µM [inhibitor, partial curve, poor fit]"}
{"smiles": "COc1ccc(-c2nc(C)nc3c2CCN([S+](=O)([O-])c2ccccc2)CC3)cc1", "Potency": "inactive"}
{"smiles": "C[C@@H](c1ccccc1)N(C)C(=O)c1cc(Cn2cnc3ccccc32)[nH]n1", "Potency": "inconclusive: 50.1 µM [inhibitor, partial curve, poor fit]"}
{"smiles": "CC(C)c1nc2c(c(-c3ccc(O)cc3)n1)CN(C(=O)C1CC1)CC2", "Potency": "inconclusive: 100 µM [inhibitor, partial curve, poor fit]"}
{"smiles": "O=C(NC1CCN(c2ccnc3ccnn23)C1)c1cccc(Cl)c1", "note": "(configuration not stated)", "Potency": "inconclusive: 31.6 µM [inhibitor, partial curve, poor fit]"}
{"smiles": "CN1[C@@H](CCC(=O)Nc2ccccc2)CNC(=O)[C@@H]2[C@H]1CCN2Cc1csnn1", "Potency": "inactive"}
{"smiles": "O=C(NC1CCCc2c1[nH]c1ccccc21)c1cccs1", "note": "(configuration not stated)", "Potency": "inconclusive: 44.7 µM [inhibitor, partial curve, poor fit]"}
{"smiles": "CN(CCc1ccccn1)C(=O)CC1CCCN(c2cnn(CC3CC3)c(=O)c2)C1", "note": "(configuration not stated)", "Potency": "inactive"}
{"smiles": "Cc1nn(-c2ccc(C(C)C)cc2)c(C)c1[C@@H]1C=C[C@@H](NCc2cccc(C#N)c2)C1", "Potency": "inconclusive: 20 µM [inhibitor, full curve, poor fit]"}
{"smiles": "O=C(c1cccc(Cl)c1)N1CCC(Cc2nc(-c3cnccn3)no2)CC1", "Potency": "inconclusive: 39.8 µM [inhibitor, partial curve, poor fit]"}
{"smiles": "CNc1cc(C2CC(NS(=O)(=O)c3ccc(Cl)s3)C2)nc(N)n1", "note": "(configuration not stated)", "Potency": "inconclusive: 56.2 µM [inhibitor, partial curve, poor fit]"}
{"smiles": "O=C(NCCNC(=O)c1cccc(-c2ccsc2)c1)c1ccc(C(F)(F)F)cc1", "Potency": "inactive"}
{"smiles": "COc1ccccc1-n1c(=O)c(C(=O)N2CCN(C(=O)N(C)C)CC2)nc2cccnc21", "Potency": "inactive"}
{"smiles": "O=C(NCc1cccs1)c1nc2sccn2c1-c1ccncc1", "Potency": "inconclusive: 56.2 µM [inhibitor, partial curve, poor fit]"}
{"smiles": "COc1ccccc1-c1ncc2c(n1)OCCN(Cc1ccc(F)cc1F)C2=O", "Potency": "inconclusive: 89.1 µM [inhibitor, partial curve, poor fit]"}
{"smiles": "Cc1ccc(S(=O)(=O)N(C)C(C)c2cccs2)cc1", "note": "(configuration not stated)", "Potency": "inconclusive: 100 µM [inhibitor, single point]"}
{"smiles": "COc1ccc(-c2cccc(C(=O)NCc3cccs3)c2)nn1", "Potency": "inconclusive: 44.7 µM [inhibitor, partial curve, poor fit]"}
{"smiles": "O=C(Nc1cc(F)cc(F)c1)c1cnc(-c2ccc(F)cc2)nc1-c1ccncc1", "Potency": "active: 20 µM"}
{"smiles": "O=C(c1[nH]ncc1Cl)N1CCOC(Cc2cccc(C(F)(F)F)c2)C1", "note": "(configuration not stated)", "Potency": "inactive"}
{"smiles": "COC(=O)c1ccc(CN2C(=O)[C@@H]3C[C@@H](O)CN3C3(CN(C(C)C)C3)C2=O)cc1", "Potency": "inactive"}
{"smiles": "O=C1COc2ccc(N3CCCC3)nc2CN1Cc1ccc(C(F)(F)F)cc1", "Potency": "inconclusive: 50.1 µM [inhibitor, partial curve, poor fit]"}
{"smiles": "COc1ccc(NC(=O)C2(C)CN(C)Cc3ccc(NCc4ccccc4)nc32)cc1", "note": "(configuration not stated)", "Potency": "active: 44.7 µM"}
{"smiles": "COc1ccc(CC(=O)N2CCN(C(=O)c3nc4cccnc4n(-c4ccccc4OC)c3=O)CC2)cc1", "Potency": "inactive"}
{"smiles": "O=C(Nc1ccc(Cl)cc1)N1CCC(C(=O)N2CCC(N3Cc4ccccc4C3=O)CC2)CC1", "Potency": "inconclusive: 44.7 µM [inhibitor, partial curve, poor fit]"}
{"smiles": "Cc1cnc(C2CCC2)n1C1CCCN(C(=O)CCCc2ccccc2)C1", "note": "(configuration not stated)", "Potency": "inconclusive: 50.1 µM [inhibitor, partial curve, poor fit]"}
{"smiles": "Cc1ccc(NC(=O)N2CCC(CCNC(=O)c3ccccn3)CC2)cc1F", "Potency": "inconclusive: 39.8 µM [inhibitor, partial curve, poor fit]"}
{"smiles": "CNC(=O)c1cc(C2CC2)nc2onc(C3CCCN(C(=O)N(C)C)C3)c12", "note": "(configuration not stated)", "Potency": "inconclusive: 70.8 µM [inhibitor, single point]"}
{"smiles": "COc1cc(=O)n2c(c1C(=O)Nc1ccc(C(C)C)cc1)CCCC2", "Potency": "inconclusive: 56.2 µM [inhibitor, partial curve, poor fit]"}
{"smiles": "Cc1ncc2n1C(=O)N(C1CCN(Cc3ccc(C(F)(F)F)cc3)CC1)C2", "Potency": "inconclusive: 44.7 µM [inhibitor, partial curve, poor fit]"}
{"smiles": "CCOc1cc(=O)n2c(c1C(=O)Nc1ccc(Br)cc1)CCCC2", "Potency": "inconclusive: 70.8 µM [inhibitor, single point]"}
{"smiles": "O=C(c1ccn[nH]1)N1CC=C(c2cnc3cnc(-c4ccccc4)cn23)CC1", "Potency": "active: 22.4 µM"}
{"smiles": "Cc1oc2ccn(Cc3cccc(F)c3)c(=O)c2c1C(=O)N(C)Cc1ccccc1", "Potency": "inconclusive: 44.7 µM [inhibitor, partial curve, poor fit]"}
{"smiles": "CC(C)Cc1cn(CC2CCCN(C(=O)c3ccc4c(c3)CCO4)C2)nn1", "note": "(configuration not stated)", "Potency": "inconclusive: 22.4 µM [inhibitor, full curve, poor fit]"}
{"smiles": "O=C(c1cc(F)ccc1F)N1CCCN(CCc2ccccc2)c2ccccc21", "Potency": "inconclusive: 28.2 µM [inhibitor, partial curve, poor fit]"}
{"smiles": "COc1ccc(C(=O)N2CCCN(C)c3ccccc32)c(OC)c1", "Potency": "inconclusive: 50.1 µM [inhibitor, partial curve, poor fit]"}
{"smiles": "Cc1nn2c(c1-c1ccccc1N1CCCC1)N(C(=O)c1ccc(Oc3ccccc3)cc1)CCC2", "Potency": "inconclusive: 70.8 µM [inhibitor, partial curve, poor fit]"}
{"smiles": "Cc1cccc(CN2CCCC3(CCN(c4nc5ccccc5o4)C3)C2=O)c1", "note": "(configuration not stated)", "Potency": "inconclusive: 39.8 µM [inhibitor, partial curve]"}
{"smiles": "COc1ccccc1N1CCN([C@H]2[C@@H]3OC[C@@H](O3)[C@@H](NCc3ccccc3O)[C@@H]2O)CC1", "Potency": "inactive"}
{"smiles": "Cc1cc(C)c(CNC(=O)c2nc(-c3cncnc3)cc3c2ccn3C(C)C)c(=O)[nH]1", "Potency": "inconclusive: 56.2 µM [inhibitor, partial curve, poor fit]"}
{"smiles": "COc1ccc(Nc2cnc3ccc(N4CCOCC4)nn23)cc1", "Potency": "inconclusive: 50.1 µM [inhibitor, partial curve, poor fit]"}
{"smiles": "CCc1nc2nccc(-c3ccc(Br)cc3)n2n1", "Potency": "inconclusive: 50.1 µM [inhibitor, single point]"}
{"smiles": "O=C(CCC1CCCC1)N1CCCCCC1c1nc(-c2ccncc2)no1", "note": "(configuration not stated)", "Potency": "inconclusive: 44.7 µM [inhibitor, partial curve, poor fit]"}
{"smiles": "O=C(CC1CCCCC1)N1CCC2(CC1)CC(N(Cc1ccc(F)cc1)C1CC1)CCO2", "note": "(configuration not stated)", "Potency": "inconclusive: 44.7 µM [inhibitor, partial curve, poor fit]"}
{"smiles": "CCOC(=O)c1cccc(NC(=O)N2CC[C@@H](CC(=O)Nc3nccs3)[C@@H](CC)C2)c1", "Potency": "inconclusive: 56.2 µM [inhibitor, partial curve, poor fit]"}
{"smiles": "Cc1cc(Cl)ccc1C(=O)N1Cc2cnn(Cc3ccc(F)cc3)c2C1", "Potency": "inconclusive: 44.7 µM [inhibitor, partial curve, poor fit]"}
{"smiles": "Cc1cccc(N(C)c2ccc3nnc(-c4cc(C#N)ccn4)n3n2)c1", "Potency": "inconclusive: 63.1 µM [inhibitor, partial curve, poor fit]"}
{"smiles": "Cc1nn(-c2ccccc2)c2c1C(C1CC1)N(CC1CN(C(=O)NC(C)C)C1)C2=O", "note": "(configuration not stated)", "Potency": "inactive"}
{"smiles": "Cc1noc(C)c1-c1cnc(Nc2ccc(Cl)cn2)c2c1CCO2", "Potency": "inconclusive: 56.2 µM [inhibitor, partial curve, poor fit]"}
{"smiles": "O=C(Cc1ccccc1)NCC1CN(C(=O)Cc2cccc(Oc3ccccc3)c2)CC12CN(c1ccccc1)C2", "note": "(configuration not stated)", "Potency": "inconclusive: 31.6 µM [inhibitor, partial curve]"}
{"smiles": "NCC1(N2CCOCC2)CCCCC1", "Potency": "inactive"}
{"smiles": "CN(C)C(=O)c1cnn2ncccc12", "Potency": "inactive"}
{"smiles": "COc1ccc(CN2CCCC(COc3ccccc3C(=O)NC3CC3)C2)c(OC)c1", "note": "(configuration not stated)", "Potency": "inactive"}
{"smiles": "COc1cccc(-c2c(C(=O)NCC3CCCCC3)nc3sccn23)c1", "Potency": "inconclusive: 56.2 µM [inhibitor, partial curve, poor fit]"}
{"smiles": "CCC(CC)NC(=O)CN1C(=O)C(Oc2ccc(F)cc2)C12CCCCC2", "note": "(configuration not stated)", "Potency": "inconclusive: 50.1 µM [inhibitor, partial curve, poor fit]"}
{"smiles": "COc1ccccc1-c1ccc(CN2CCC(NC(=O)c3cccc(Cl)c3)C2)cc1", "note": "(configuration not stated)", "Potency": "active: 22.4 µM"}
{"smiles": "O=C(Nc1ccccc1)O[C@@H]1CO[C@H]2[C@@H]1OC[C@@H]2NC(=S)Nc1ccc(F)cc1", "Potency": "inconclusive: 89.1 µM [inhibitor, partial curve]"}
{"smiles": "COCCc1ccc(OCc2ccccc2-c2ccc(=O)n(C)n2)cc1", "Potency": "inconclusive: 56.2 µM [inhibitor, partial curve, poor fit]"}
{"smiles": "CCc1noc(-c2cn(C3CCN(C(=O)c4ccc(F)cc4)C3)nn2)n1", "note": "(configuration not stated)", "Potency": "inconclusive: 25.1 µM [inhibitor, partial curve, poor fit]"}
{"smiles": "COCCNc1ncnc2c1CN(C1CCCC1)C(=O)CN2C", "Potency": "inconclusive: 63.1 µM [inhibitor, partial curve, poor fit]"}
